# Laboratory results published in the supplement of paper PMC4604168 (melanoma cell lines).
# This is one part of the list. Single values are uncertain, as repeats are few or missing.
# Columns and labels:
# Assay in all cases: cell count relative to DMSO control; melanoma cells; higher = more viable cells
# Settings in all cases: library dose: standard library concentration; 72 h
# G361 = tested on: G361
# IPC-298 = tested on: IPC-298
# IST-MEL1 = tested on: IST-MEL1
# LB2518-MEL = tested on: LB2518-MEL
# LOXIMVI = tested on: LOXIMVI
# MEL-HO = tested on: MEL-HO
# MZ2-MEL = tested on: MZ2-MEL
# MeWo = tested on: MeWo
# RPMI7951 = tested on: RPMI7951
# RVH-421 = tested on: RVH-421
# 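Also: cells treated in 1,536-well plates, then fixed and DAPI-stained, with nuclei counted from automated high-throughput microscope images.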
SMILES,cell count (G361),cell count (IPC-298),cell count (IST-MEL1),cell count (LB2518-MEL),cell count (LOXIMVI),cell count (MEL-HO),cell count (MZ2-MEL),cell count (MeWo),cell count (RPMI7951),cell count (RVH-421)
"C[C@@H](Oc1cc(-c2cnn(C3CCNCC3)c2)cnc1N)c1c(Cl)ccc(F)c1Cl [Crizotinib] + Cc1cc([N+](=O)[O-])ccc1NS(=O)(=O)c1cc(Cl)ccc1Cl [FH535] (first compound 1 µM, partner dose 5 µM)",44.6%,51.7%,59.8%,68.8%,62.8%,50%,67.2%,64.8%,70.1%,59%
"C=CCNC1=C2C[C@@H](C)C[C@H](OC)[C@H](O)[C@@H](C)/C=C(\C)[C@H](OC(N)=O)[C@@H](OC)/C=C\C=C(/C)C(=O)NC(=CC1=O)C2=O [Tanespimycin] + CCCCCCCCCCCC1=C(O)C(=O)C=C(O)C1=O [Embelin] (first compound 0.01 µM, partner dose 6 µM)",52.4%,73%,52.2%,84.9%,86.8%,63.6%,84.8%,65.2%,34.6%,18.7%
"CS(=O)(=O)CCNCc1ccc(-c2ccc3ncnc(Nc4ccc(OCc5cccc(F)c5)c(Cl)c4)c3c2)o1 [lapatinib] + CN(NC(=O)CC(=O)NN(C)C(=S)c1ccccc1)C(=S)c1ccccc1 [STA4783] (first compound 4 µM, partner dose 0.03 µM)",11.3%,56.6%,20.5%,11.9%,80.8%,59.8%,49.9%,9.68%,51.5%,41.4%
"C=CCNC1=C2C[C@@H](C)C[C@H](OC)[C@H](O)[C@@H](C)/C=C(\C)[C@H](OC(N)=O)[C@@H](OC)/C=C\C=C(/C)C(=O)NC(=CC1=O)C2=O [Tanespimycin] + COc1ccc(Cl)c(Nc2nc3ccccc3nc2NS(=O)(=O)c2cccc(NC(=O)C(C)(C)N)c2)c1 [XL147] (first compound 0.01 µM, partner dose 4 µM)",63.8%,69.8%,65.2%,74.7%,96.5%,66.4%,92.4%,82.6%,34.5%,96.5%
"CN1CCN(c2ccc3nc(-c4c(N)c5c(F)cccc5[nH]c4=O)[nH]c3c2)CC1 [Dovitinib] + CS(=O)(=O)CCNCc1ccc(-c2ccc3ncnc(Nc4ccc(OCc5cccc(F)c5)c(Cl)c4)c3c2)o1 [lapatinib] (first compound 0.5 µM, partner dose 4 µM)",35%,67.7%,67.9%,48.9%,83.5%,57.3%,42.7%,42.4%,26.2%,100%
"CS(=O)(=O)CCNCc1ccc(-c2ccc3ncnc(Nc4ccc(OCc5cccc(F)c5)c(Cl)c4)c3c2)o1 [lapatinib] + O=S(=O)(c1ccccc1)N(CC(F)(F)F)c1ccc(C(O)(C(F)(F)F)C(F)(F)F)cc1 [T0901317] (first compound 4 µM, partner dose 7 µM)",4.92%,73.8%,87.7%,80.7%,92.2%,70.2%,50.3%,67.4%,11.1%,55.8%
"C[C@@H](Oc1cc(-c2cnn(C3CCNCC3)c2)cnc1N)c1c(Cl)ccc(F)c1Cl [Crizotinib] + CS(=O)(=O)CCNCc1ccc(-c2ccc3ncnc(Nc4ccc(OCc5cccc(F)c5)c(Cl)c4)c3c2)o1 [lapatinib] (first compound 1 µM, partner dose 4 µM)",55.5%,74.7%,79.5%,47%,84.4%,69.7%,40.5%,75.5%,15.2%,92%
"CNC(=O)c1cc(Oc2ccc(NC(=O)Nc3ccc(Cl)c(C(F)(F)F)c3)cc2)ccn1 [sorafenib] + CS(=O)(=O)CCNCc1ccc(-c2ccc3ncnc(Nc4ccc(OCc5cccc(F)c5)c(Cl)c4)c3c2)o1 [lapatinib] (first compound 2 µM, partner dose 4 µM)",45.8%,76.9%,86.6%,73.1%,150%,60.4%,62.7%,57.4%,33.4%,78.3%
"C[C@@H](Oc1cc(-c2cnn(C3CCNCC3)c2)cnc1N)c1c(Cl)ccc(F)c1Cl [Crizotinib] + Cn1c(Nc2ccc(C(F)(F)F)cc2)nc2cc(Oc3ccnc(-c4ncc(C(F)(F)F)[nH]4)c3)ccc21 [CHIR265] (first compound 1 µM, partner dose 0.4 µM)",30.6%,45.6%,91.4%,32.7%,99.2%,57.6%,59.5%,59.6%,42.8%,57.6%
"C[C@@H](Oc1cc(-c2cnn(C3CCNCC3)c2)cnc1N)c1c(Cl)ccc(F)c1Cl [Crizotinib] + O=C(O)C(=O)Nc1sc2c(c1C(=O)O)CCNC2 [TCS401] (first compound 1 µM, partner dose 8.33333 µM)",79.9%,89.1%,100%,78%,107%,90.1%,91.2%,70%,90.6%,83%
"CS(=O)(=O)CCNCc1ccc(-c2ccc3ncnc(Nc4ccc(OCc5cccc(F)c5)c(Cl)c4)c3c2)o1 [lapatinib] + Nc1nc(F)nc2c1ncn2[C@@H]1O[C@H](CO)[C@@H](O)[C@@H]1O [fludarabine] (first compound 4 µM, partner dose 1 µM)",75.3%,62.5%,73.8%,78.7%,149%,65.1%,66.4%,92.2%,49.8%,73.8%
"C[C@@H](Oc1cc(-c2cnn(C3CCNCC3)c2)cnc1N)c1c(Cl)ccc(F)c1Cl [Crizotinib] + CCc1ccc(CCOc2ccc(CC3SC(=O)NC3=O)cc2)nc1 [pioglitazone] (first compound 1 µM, partner dose 10 µM)",75.5%,91.5%,99.6%,101%,119%,96%,102%,72.4%,94.4%,88.7%
"CS(=O)(=O)CCNCc1ccc(-c2ccc3ncnc(Nc4ccc(OCc5cccc(F)c5)c(Cl)c4)c3c2)o1 [lapatinib] + NCC(=O)Nc1ccc(-n2nc(C(F)(F)F)cc2-c2ccc3c(ccc4ccccc43)c2)cc1 [OSU03012] (first compound 4 µM, partner dose 5 µM)",8.45%,53.7%,62.2%,42.8%,41%,38.4%,39.8%,55%,1.84%,38.5%
"CS(=O)(=O)CCNCc1ccc(-c2ccc3ncnc(Nc4ccc(OCc5cccc(F)c5)c(Cl)c4)c3c2)o1 [lapatinib] + Clc1ccc(Nc2nnc(Cc3ccncc3)c3ccccc23)cc1 [vatalanib] (first compound 4 µM, partner dose 10 µM)",44.7%,67.1%,73.4%,90.9%,44.4%,40.7%,27.6%,71%,45.2%,52.8%
"CNC(=O)c1cc(Oc2ccc(NC(=O)Nc3ccc(Cl)c(C(F)(F)F)c3)cc2)ccn1 [sorafenib] + Nc1ncn([C@H]2C[C@H](O)[C@@H](CO)O2)c(=O)n1 [decitabine] (first compound 2 µM, partner dose 0.5 µM)",75%,67.6%,82.2%,89.3%,150%,80.3%,99.7%,86.4%,76.6%,84.2%
"C[C@@H](Oc1cc(-c2cnn(C3CCNCC3)c2)cnc1N)c1c(Cl)ccc(F)c1Cl [Crizotinib] + O=C1NC(=O)/C(=C/c2ccc(-c3ccc(F)cc3O)o2)S1 [AS252424] (first compound 1 µM, partner dose 5 µM)",87.2%,77.7%,93.6%,79.7%,112%,82.2%,85.1%,64.7%,102%,81.1%
"CN1CCN(c2ccc3nc(-c4c(N)c5c(F)cccc5[nH]c4=O)[nH]c3c2)CC1 [Dovitinib] + COC(=O)c1sccc1S(=O)(=O)Nc1ccc(Nc2ccccc2)cc1OC [GSK0660] (first compound 0.5 µM, partner dose 5 µM)",78.2%,73.6%,88.2%,59.2%,132%,74%,59.4%,70.9%,137%,103%
"C[C@@H](Oc1cc(-c2cnn(C3CCNCC3)c2)cnc1N)c1c(Cl)ccc(F)c1Cl [Crizotinib] + N#Cc1c(O)c2c(-c3ccc(-c4ccccc4O)cc3)csc2[nH]c1=O [A769662] (first compound 1 µM, partner dose 10 µM)",88.8%,104%,91.6%,73.9%,115%,96.2%,97.6%,67.2%,89.7%,88.6%
"CN1CCN(c2ccc3nc(-c4c(N)c5c(F)cccc5[nH]c4=O)[nH]c3c2)CC1 [Dovitinib] + Nc1cccc2c1CN(C1CCC(=O)NC1=O)C2=O [lenalidomide] (first compound 0.5 µM, partner dose 5 µM)",56.5%,75.1%,78%,51.7%,91.1%,73%,48.4%,49%,98.5%,125%
"CS(=O)(=O)CCNCc1ccc(-c2ccc3ncnc(Nc4ccc(OCc5cccc(F)c5)c(Cl)c4)c3c2)o1 [lapatinib] + Cc1cc([N+](=O)[O-])ccc1NS(=O)(=O)c1cc(Cl)ccc1Cl [FH535] (first compound 4 µM, partner dose 5 µM)",41.1%,53.6%,52.9%,70.4%,76.3%,43.6%,37.1%,62.7%,48.9%,56%
